Experimental data published in article PMC9911399, “Two distinct binding modes provide the RNA-binding protein RbFox with extraordinary sequence specificity”.
Where a chain is given by its changes, count along the chain named. The list shows a part of the results.

B1: CUAAACU (DNA:RNA)
RNA: GGGAGACCGGAAUUCAGAUUGUCCCUAAACUUUAAAUCCCGUCGUAGCCACCA
DNA 1: CAATCTGAATTCCGGTCTCCC
DNA 2: TGGTGGCTACGACGGGATT
B2: GAGAAAA (DNA:RNA)
RNA: B1 RNA with C25G, U26A, A27G, C30A, U31A
DNA 1: CAATCTGAATTCCGGTCTCCC
DNA 2: TGGTGGCTACGACGGGATT
B3: AACGCUA (DNA:RNA)
RNA: GGGAGACCGGAAUUCAGAUUGUCCAACGCUAUUAAAUCCCGUCGUAGCCACCA
DNA 1: CAATCTGAATTCCGGTCTCCC
DNA 2: TGGTGGCTACGACGGGATT
B4: CUAUCAA (DNA:RNA)
RNA: B1 RNA with A28U, A29C, C30A, U31A
DNA 1: CAATCTGAATTCCGGTCTCCC
DNA 2: TGGTGGCTACGACGGGATT
B5: CGACCCG (DNA:RNA)
RNA: B1 RNA with U26G, A28C, A29C, U31G
DNA 1: CAATCTGAATTCCGGTCTCCC
DNA 2: TGGTGGCTACGACGGGATT
B6: CCGCUGC (DNA:RNA)
RNA: B1 RNA with U26C, A27G, A28C, A29U, C30G, U31C
DNA 1: CAATCTGAATTCCGGTCTCCC
DNA 2: TGGTGGCTACGACGGGATT
B7: CCGGACU (DNA:RNA)
RNA: B1 RNA with U26C, A27G, A28G
DNA 1: CAATCTGAATTCCGGTCTCCC
DNA 2: TGGTGGCTACGACGGGATT
B8: UCGGAAA (DNA:RNA)
RNA: B3 RNA with A25U, A26C, C27G, C29A, U30A
DNA 1: CAATCTGAATTCCGGTCTCCC
DNA 2: TGGTGGCTACGACGGGATT
B9: AGACAUC (DNA:RNA)
RNA: B3 RNA with A26G, C27A, G28C, C29A, A31C
DNA 1: CAATCTGAATTCCGGTCTCCC
DNA 2: TGGTGGCTACGACGGGATT
B10: CGGAGAG (DNA:RNA)
RNA: B1 RNA with U26G, A27G, A29G, C30A, U31G
DNA 1: CAATCTGAATTCCGGTCTCCC
DNA 2: TGGTGGCTACGACGGGATT
B11: UAUGCAC (DNA:RNA)
RNA: B3 RNA with A25U, C27U, U30A, A31C
DNA 1: CAATCTGAATTCCGGTCTCCC
DNA 2: TGGTGGCTACGACGGGATT
B12: GCCAAUA (DNA:RNA)
RNA: B3 RNA with A25G, A26C, G28A, C29A
DNA 1: CAATCTGAATTCCGGTCTCCC
DNA 2: TGGTGGCTACGACGGGATT
B13: UGACGGA (DNA:RNA)
RNA: B3 RNA with A25U, A26G, C27A, G28C, C29G, U30G
DNA 1: CAATCTGAATTCCGGTCTCCC
DNA 2: TGGTGGCTACGACGGGATT
B14: CUACCAU (DNA:RNA)
RNA: B1 RNA with A28C, A29C, C30A
DNA 1: CAATCTGAATTCCGGTCTCCC
DNA 2: TGGTGGCTACGACGGGATT
B15: AGAACCC (DNA:RNA)
RNA: B1 RNA with C25A, U26G, A29C, U31C
DNA 1: CAATCTGAATTCCGGTCTCCC
DNA 2: TGGTGGCTACGACGGGATT
B16: AGGAUAA (DNA:RNA)
RNA: B3 RNA with A26G, C27G, G28A, C29U, U30A
DNA 1: CAATCTGAATTCCGGTCTCCC
DNA 2: TGGTGGCTACGACGGGATT
B17: UCCGAGU (DNA:RNA)
RNA: B3 RNA with A25U, A26C, C29A, U30G, A31U
DNA 1: CAATCTGAATTCCGGTCTCCC
DNA 2: TGGTGGCTACGACGGGATT
B18: CGACGUG (DNA:RNA)
RNA: B1 RNA with U26G, A28C, A29G, C30U, U31G
DNA 1: CAATCTGAATTCCGGTCTCCC
DNA 2: TGGTGGCTACGACGGGATT
B19: AGACGAU (DNA:RNA)
RNA: B1 RNA with C25A, U26G, A28C, A29G, C30A
DNA 1: CAATCTGAATTCCGGTCTCCC
DNA 2: TGGTGGCTACGACGGGATT
B20: GUCUUCG (DNA:RNA)
RNA: B1 RNA with C25G, A27C, A28U, A29U, U31G
DNA 1: CAATCTGAATTCCGGTCTCCC
DNA 2: TGGTGGCTACGACGGGATT
B21: UAAACAA (DNA:RNA)
RNA: B3 RNA with A25U, C27A, G28A, U30A
DNA 1: CAATCTGAATTCCGGTCTCCC
DNA 2: TGGTGGCTACGACGGGATT
B22: GUCAAUC (DNA:RNA)
RNA: B1 RNA with C25G, A27C, C30U, U31C
DNA 1: CAATCTGAATTCCGGTCTCCC
DNA 2: TGGTGGCTACGACGGGATT
B23: CUGGUAU (DNA:RNA)
RNA: B1 RNA with A27G, A28G, A29U, C30A
DNA 1: CAATCTGAATTCCGGTCTCCC
DNA 2: TGGTGGCTACGACGGGATT
B24: AGUUCUU (DNA:RNA)
RNA: B3 RNA with A26G, C27U, G28U, A31U
DNA 1: CAATCTGAATTCCGGTCTCCC
DNA 2: TGGTGGCTACGACGGGATT
B25: CGUUCUG (DNA:RNA)
RNA: B3 RNA with A25C, A26G, C27U, G28U, A31G
DNA 1: CAATCTGAATTCCGGTCTCCC
DNA 2: TGGTGGCTACGACGGGATT
B26: UUUUUUU (DNA:RNA)
RNA: B1 RNA with C25U, A27U, A28U, A29U, C30U
DNA 1: CAATCTGAATTCCGGTCTCCC
DNA 2: TGGTGGCTACGACGGGATT
B27: CGUAGCU (DNA:RNA)
RNA: B1 RNA with U26G, A27U, A29G
DNA 1: CAATCTGAATTCCGGTCTCCC
DNA 2: TGGTGGCTACGACGGGATT
B28: GAGUUUA (DNA:RNA)
RNA: B3 RNA with A25G, C27G, G28U, C29U
DNA 1: CAATCTGAATTCCGGTCTCCC
DNA 2: TGGTGGCTACGACGGGATT
B29: AACUAAC (DNA:RNA)
RNA: B3 RNA with G28U, C29A, U30A, A31C
DNA 1: CAATCTGAATTCCGGTCTCCC
DNA 2: TGGTGGCTACGACGGGATT
B30: GCUUCGA (DNA:RNA)
RNA: B3 RNA with A25G, A26C, C27U, G28U, U30G
DNA 1: CAATCTGAATTCCGGTCTCCC
DNA 2: TGGTGGCTACGACGGGATT
B31: ACAAUCG (DNA:RNA)
RNA: B1 RNA with C25A, U26C, A29U, U31G
DNA 1: CAATCTGAATTCCGGTCTCCC
DNA 2: TGGTGGCTACGACGGGATT

Each binder was assayed against T1, RBFOX1 RRM RbFoxmut (Fox-RRM*) (Homo sapiens, UniProt Q9NWB1 109-208, R118D;E147R;N151S;E152T) (assay: EMSA; HiTS-Eq, 1 nM pool, 10 min; buffer printed only for the single-RNA assays: 10 mM Tris pH 7.5, 150 mM NaCl, 3.4 mM EDTA, 0.001% NP-40, 30 C). Settings: tags: His6 N-terminal (pET28a); label: 5' 32P.
T1 sequence: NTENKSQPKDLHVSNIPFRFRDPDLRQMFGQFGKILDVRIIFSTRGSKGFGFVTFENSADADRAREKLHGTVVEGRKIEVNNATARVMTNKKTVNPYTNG
Procedure, shortened: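 Relative association constants, normalised to the cognate motif, were derived by comparing read counts of each RNA species with those of the control reaction. The RNA sequenced was the free fraction, separated by 8% native PAGE after a 10 min equilibration in 50 µL of 1 nM 5′-radiolabelled RNA (7 randomized nucleotides) with increasing concentrations of purified wild-type or mutant RbFox RRM.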

| Binder | binding signal |
| --- | --- |
| B1 | 0.0676 KA relative to UGCAUGU |
| B2 | 0.0838 KA relative to UGCAUGU |
| B3 | 0.105 KA relative to UGCAUGU |
| B4 | 0.0659 KA relative to UGCAUGU |
| B5 | 0.0699 KA relative to UGCAUGU |
| B6 | 0.114 KA relative to UGCAUGU |
| B7 | 0.0659 KA relative to UGCAUGU |
| B8 | 0.081 KA relative to UGCAUGU |
| B9 | 0.055 KA relative to UGCAUGU |
| B10 | 0.0916 KA relative to UGCAUGU |
| B11 | 0.0765 KA relative to UGCAUGU |
| B12 | 0.0925 KA relative to UGCAUGU |
| B13 | 0.0634 KA relative to UGCAUGU |
| B14 | 0.0627 KA relative to UGCAUGU |
| B15 | 0.0712 KA relative to UGCAUGU |
| B16 | 0.0804 KA relative to UGCAUGU |

| Binder | binding signal |
| --- | --- |
| B17 | 0.1 KA relative to UGCAUGU |
| B18 | 0.0961 KA relative to UGCAUGU |
| B19 | 0.0703 KA relative to UGCAUGU |
| B20 | 0.245 KA relative to UGCAUGU |
| B21 | 0.0531 KA relative to UGCAUGU |
| B22 | 0.0561 KA relative to UGCAUGU |
| B23 | 0.147 KA relative to UGCAUGU |
| B24 | 0.086 KA relative to UGCAUGU |
| B25 | 0.0983 KA relative to UGCAUGU |
| B26 | 0.0992 KA relative to UGCAUGU |
| B27 | 0.126 KA relative to UGCAUGU |
| B28 | 0.113 KA relative to UGCAUGU |
| B29 | 0.0803 KA relative to UGCAUGU |
| B30 | 0.13 KA relative to UGCAUGU |
| B31 | 0.0546 KA relative to UGCAUGU |
